# PMC4336329 (PLoS ONE, 2015)
# About 14,000 (4.5%) of roughly 310,000 compounds showed an effect of 50% or more. The effect is printed as a negative number. The list shows a part of the results.
# Target: human ether-à-go-go-related gene (hERG) potassium channel (human, UniProt Q12809)
# Assay: primary screen, population patch clamp on CHO cells stably expressing hERG
# 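Also: peak tail current of the secondary pulse compared with the same well before compound.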
# human ether-à-go-go-related gene (hERG) potassium channel, sequence (Q12809 whole entry, looked up): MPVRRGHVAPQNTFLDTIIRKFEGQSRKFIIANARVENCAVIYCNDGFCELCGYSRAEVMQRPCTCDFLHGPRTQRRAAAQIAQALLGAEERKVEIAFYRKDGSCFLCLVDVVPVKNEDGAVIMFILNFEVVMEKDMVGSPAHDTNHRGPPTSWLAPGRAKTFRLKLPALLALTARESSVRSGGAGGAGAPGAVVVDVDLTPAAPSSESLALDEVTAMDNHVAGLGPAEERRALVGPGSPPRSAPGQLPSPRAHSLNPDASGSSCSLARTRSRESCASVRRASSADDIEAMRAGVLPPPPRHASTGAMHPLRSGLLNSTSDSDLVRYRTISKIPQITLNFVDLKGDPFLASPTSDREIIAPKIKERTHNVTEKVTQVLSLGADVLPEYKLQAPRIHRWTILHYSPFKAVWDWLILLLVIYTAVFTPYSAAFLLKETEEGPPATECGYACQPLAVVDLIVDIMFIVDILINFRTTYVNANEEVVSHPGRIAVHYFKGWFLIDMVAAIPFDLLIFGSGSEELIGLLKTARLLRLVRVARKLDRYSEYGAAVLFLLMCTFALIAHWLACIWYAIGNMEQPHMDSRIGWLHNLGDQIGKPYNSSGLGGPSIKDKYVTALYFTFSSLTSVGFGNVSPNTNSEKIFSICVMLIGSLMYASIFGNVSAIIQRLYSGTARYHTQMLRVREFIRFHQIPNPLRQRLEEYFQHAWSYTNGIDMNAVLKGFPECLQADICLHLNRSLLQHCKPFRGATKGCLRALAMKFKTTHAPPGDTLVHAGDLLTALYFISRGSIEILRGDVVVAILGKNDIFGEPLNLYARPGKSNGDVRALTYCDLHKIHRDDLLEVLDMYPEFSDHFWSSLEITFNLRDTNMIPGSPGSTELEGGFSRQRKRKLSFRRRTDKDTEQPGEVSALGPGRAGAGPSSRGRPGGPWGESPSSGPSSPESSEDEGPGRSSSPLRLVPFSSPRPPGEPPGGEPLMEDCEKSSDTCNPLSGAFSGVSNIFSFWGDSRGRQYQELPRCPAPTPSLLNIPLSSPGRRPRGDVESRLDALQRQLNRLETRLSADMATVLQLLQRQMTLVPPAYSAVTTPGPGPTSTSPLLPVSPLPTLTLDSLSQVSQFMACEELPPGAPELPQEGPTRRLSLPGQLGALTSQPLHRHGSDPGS
row,Structure (SMILES),"hERG current change (%, negative = inhibition) at 10uM [%]"
1,O=C1C=C(c2ccc(F)nc2)C[C@@H](c2ccc3c(c2)OCO3)C1,-7.35
2,CC1=NN(C(N)=S)C(=O)C1N=Nc1cccc([N+](=O)[O-])c1 (centres unmarked),-0.877
3,CCCCCn1c(=O)c(C(=O)NCc2ccccc2)c(O)c2ccccc21,15.2
4,CSc1ccc(CN(C)CC(=O)NCCc2ccccc2)cc1,-35.5
5,Cc1cc(C)cc(NC(=O)CCn2ccnc2)c1,3.41
6,CC(=O)c1ccc(S(=O)(=O)NCCC(=O)NCCc2c[nH]c3ccccc23)cc1,-30.2
7,Nc1ncc([N+](=O)[O-])c(N2CCCCCC2)n1,23.5
8,O=C(NCC1COc2ccccc2O1)c1ccc(Cl)c(S(=O)(=O)N2CCOCC2)c1 (centres unmarked),-43
9,O=C(N1CCCCCC1)N1CCN(C(=O)N2CCCCC2)CC1,16.7
10,Cc1cc(=O)[nH]c(N2CCCNCC2)n1,11.7
11,CCCCSc1nc2c(=O)[nH][nH]c(=O)c2n1Cc1ccccc1,2.51
12,O=C(CSc1nc(=O)n(CCCN2CCOCC2)c2c1CCCC2)Nc1ccc(F)cc1F,-22.6
13,O=C(NC1CCCc2c1cnn2-c1cc(F)cc(F)c1)c1ccc[n+]([O-])c1 (centres unmarked),-1.14
14,CC(C)(C)c1[nH]nc2c1C(c1ccoc1)C(C#N)=C(N)O2 (centres unmarked),-10.6
15,Cc1nc2cc(NCc3cc([N+](=O)[O-])ccc3O)ccc2n1Cc1ccccc1,-2.18
16,COc1ccc(C)c(-n2c(N)cc(=O)n(Cc3ccccc3)c2=O)c1,18.1
17,C/C=C/c1ccc(OCCCCOc2ccccc2C(C)=O)c(OC)c1,-12.1
18,COc1ccc(CCn2c(N)c(S(=O)(=O)c3cccs3)c3nc4ccccc4nc32)cc1OC,-26.2
19,CCOC(=O)C1CCCN(c2nnnn2-c2ccccc2)C1 (centres unmarked),-5.57
20,N#Cc1c(Nc2ccccc2)sc(C(=O)C2CC2)c1N,20.7
21,c1ccc(NC2=NCCN2CCCC2CCCC2)cc1,-53.4
22,CCOc1ccc(C(=O)Nc2cccc3ncccc23)cc1Cl,14.8
23,O=C(c1ccccc1F)c1cn(CC(=O)N2CCCCC2)c2ccccc12,0.0544

row,Structure (SMILES),"hERG current change (%, negative = inhibition) at 10uM [%]"
1,c1ccc(Nc2cccc3c(Nc4ccccc4)cccc23)cc1,0.102
2,COc1ccccc1NS(=O)(=O)c1cccc(C(=O)NCC(c2ccc(F)cc2)N2CCOCC2)c1 (centres unmarked),-34.3
3,COc1ccc(S(=O)(=O)Nc2ccc(-n3cccc3)cc2)cc1,10
4,Brc1ccccc1-c1cnco1,13.7
5,O=C1CSC(=O)N1CCOCCN1C(=O)CSC1=O,7.16
6,O=c1[nH]nc(SCCS(=O)(=O)c2ccc(F)cc2)n1-c1ccccc1C(F)(F)F,-6.83
7,COCCNC(=O)CN(C(=O)CCC(=O)Nc1ccccn1)c1cc(C)ccc1C,-6.02
8,CCC(C)NS(=O)(=O)c1ccc(S(=O)(=O)N(CC(=O)Nc2ccccc2)CC2CCCO2)cc1 (centres unmarked),-3.29
9,COc1ccc(S(=O)(=O)N2CCCCCC2)cc1C(=O)N(C)Cc1cccs1,-40.5
10,COC(=O)c1ccccc1NC(=O)Cn1nc2n(C)c3ccccc3n2c(=O)c1=O,-3.54
11,NC(=O)c1cc(S(=O)(=O)NCCc2ccccc2)cs1,15.5
12,Cc1ccc(NC(=O)C2CCCC2)cc1Cl,-2.92
13,O=C(N/N=C/c1ccc(OCCCF)cc1)c1ccc(C(F)(F)F)cc1,15.2
14,CCc1nnc(NS(=O)(=O)c2ccc(NC(=O)COc3ccc4ccccc4c3)cc2)s1,11
15,CCCc1nc2ccccc2c(=O)n1-c1cccc(OC)c1,2.69
16,CCc1ccccc1NC(=O)CSc1ccsc1[N+](=O)[O-],15.2
17,Cc1ccc(Cn2c(=O)c3ccccc3n3nc(C)cc23)cc1,17.7
18,Brc1nc(-c2ccccc2)nc(-c2ccccc2)c1Br,-5.38
19,C=CCSc1nc2ccsc2c(=O)n1-c1ccccc1,13.3
20,COc1ccc(-c2cc(-c3nnc(COC(=O)c4ccncc4)o3)c3ccccc3n2)cc1OC,4.32
21,COc1ccc(N(C)C(=O)c2sc(Cl)nc2C)cc1,6.04
22,COc1ccc(S(=O)(=O)N(CC(=O)O)c2ccccc2)cc1,12.3
23,Cc1ccc(C)c(S(=O)(=O)Nc2ccc3scnc3c2)c1,14.1

row,Structure (SMILES),"hERG current change (%, negative = inhibition) at 10uM [%]"
1,Cc1ccc(S(=O)(=O)N2CCCCC2)cc1NC(=S)NC(=O)c1ccco1,8.18
2,O=C(c1cccs1)N1CCN=C1SCc1ccccc1,7.77
3,COc1ccc(C2C(C#N)=C(/N=C/N3CCN(C)CC3)OC3=C2C(=O)CC(C)(C)C3)cc1OC (centres unmarked),8.95
4,NC(=O)CC1C(=O)N(c2ccccc2)C(=S)N1NC(=O)c1ccccc1 (centres unmarked),26.9
5,COc1cc2c(cc1OC)CN(CC(=O)Nc1ccc(C)c(S(=O)(=O)N3CCOCC3)c1)CC2,-14.9
6,C/C(=N\Nc1ccc(Cl)cc1)c1ccccn1.Cl,-20.9
7,COc1ccc(CNc2nnnn2C)c(OC)c1,-1.37
8,CCN(CC)C(=S)Nc1ccc(OC(F)F)cc1,-28.6
9,CCCCNC(=O)N(O)C1N(/N=C/c2ccccc2F)C(=S)SC1(C)C (centres unmarked),16.5
10,C1CCN(CCCNC2C3CC4CC(C3)CC2C4)C1.Cl (centres unmarked),3.35
11,Cc1ccc2c(Cl)cc(Cl)c(OCC(=O)N(C(C)C)C(C)C)c2n1,-0.825
12,COC(=O)c1sccc1NC(=O)CC1C(=O)NCCN1C(=O)c1ccccc1 (centres unmarked),10.2
13,COCCCNC(NC(=O)c1ccc(Cl)cc1)C(Cl)(Cl)Cl (centres unmarked),-9.55
14,CCN1CCC2(CC1)NC(CO)(CO)CO2,9.44
15,O=C(CNC(=O)c1ccccc1)OCC(=O)c1ccccc1Cl,26.7
16,C/C(=C\C(=O)c1ccccc1)Nc1ccc(Cl)c(Br)c1,7.41
17,O=C1c2ccc(Cl)cc2S(=O)(=O)c2cccc(C(=O)N3CCN(c4ccc(Cl)cn4)CC3)c21,-39.9
18,CCOC(=O)C1C(c2ccc(C)o2)NC(=O)NC1(O)C(F)(F)F (centres unmarked),5.67
19,CCc1ccccc1NC(=O)C1CCCN(c2ncccn2)C1 (centres unmarked),15.2
20,Cc1ccc2nc(N3C(=O)C(O)=C(C(=O)c4ccco4)C3c3cccc(O)c3)sc2c1.O=C(O)C(=O)O (centres unmarked),-0.0861
21,COc1ccccc1CCNC(=O)CCCn1nc(C)c2c(C)n(-c3ccc(C)cc3)nc2c1=O,-16.6
22,Cc1c(CC(=O)O)c(=O)oc2c(C)c3occ(-c4ccc(F)cc4)c3cc12,16.3
23,Cc1csc(NC(=O)/C=C/c2ccc3c(c2)OCO3)n1,10

row,Structure (SMILES),"hERG current change (%, negative = inhibition) at 10uM [%]"
1,O=C(CCCN=C1NS(=O)(=O)c2ccccc21)OCC(=O)c1ccccc1,4.47
2,O=C(NCc1cccc(Br)c1)C1CC2Cn3c(nc4ccccc43)C2N1c1ccccc1 (centres unmarked),-20.5
3,Clc1ccc(SCCn2ccnc2)cc1,-1.48
4,Cc1ccccc1NC(=S)N(CCCN1CCOCC1)Cc1ccccn1,-7.79
5,Cc1ccc(Oc2cnc3ccccc3n2)cc1,-13.7
6,CCc1ccc(NC(=O)C2CCN(C(=O)[C@@H]3Cc4ccccc4CN3)CC2)cc1,-59.5
7,Cc1ccc(CCNC(=O)CS(=O)Cc2nc(-c3cccs3)oc2C)cc1 (centres unmarked),-14.5
8,O=C(N/N=C/c1ccco1)c1cccc(N2CCCC2=O)c1,10.3
9,Cc1cccc(NC(=O)COc2ccc(Br)cc2C)n1,6.47
10,COc1ccc(CN2CCc3cc(OC)c(OC)cc3C2)cc1O,-43.3
11,O=C(Nc1ccc(-c2nc3ccccc3[nH]2)cc1)c1ccc(N2C(=O)CCC2=O)cc1,1.17
12,NC(=O)Cn1cc(/C=N\NS(=O)(=O)c2ccccc2)c2ccccc21,22.3
13,Cc1ccc(C2(C)NC(=O)N(CC(=O)Nc3ccccc3N3CCCCC3)C2=O)cc1 (centres unmarked),-4.23
14,O=C(NCCCn1ccnc1)C(=O)NCC(c1ccco1)N1CCN(c2ccc(F)cc2)CC1 (centres unmarked),-11.7
15,CC1(C)N=C(c2cccc(F)c2)C(=O)N1,0.697
16,Cc1cccnc1NC(=O)C1CCN(S(=O)(=O)c2ccc3ccccc3c2)CC1,5.39
17,O=C(c1cc([N+](=O)[O-])ccc1N1CCOCC1)N1CCCC1,-3.68
18,O=C1CCCc2nc3c(cc21)C(O)Oc1c-3ccc2ccccc12 (centres unmarked),17.7
19,CCOc1cc(C(=O)N/N=C/c2ccoc2)cc(OCC)c1OCC,5.67
20,O=C(Nc1ccc2c(c1)OCO2)c1cccc2c1C(=O)N(C1CCCCC1)C2,21.1
